Source: the supplement of paper PMC10037445
The full ranking holds about 2,900 compounds; the median of “IRF Lucia reporter activity, fold change vs agonist alone” is about 0.9, and the highest 2% start at about 2.8. The list shows a part of the results.

What was measured:
RAW-Dual [1] = experiment: IRF Lucia reporter activity, fold change vs agonist alone; higher = enhanced IRF activity; settings: agonist: MPLA (TLR4) […]
How it was run: (§1)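 Library stock was pin-tooled at 50 nL into 384-well plates of RAW-Dual macrophages (50,000 cells/well, DMEM), followed 1 h later by a PRR agonist, and the cells were kept at 37 °C, 5% CO2. Supernatant collected after 20 hours was read for IRF by QuantiLuc luminescence and for NF-κB by QuantiBlue absorbance at 620 nm. Reporter activity is fold change over agonist-alone wells, and a well counted as cytotoxic when its IncuCyte confluency was below 70% of agonist controls in both mask sets.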

RAW-Dual [2] = experiment: IRF Lucia reporter activity, fold change vs agonist alone; cytotoxicity flag (confluency mask): not cytotoxic; higher = enhanced IRF activity
How it was run: as §1

RAW-Dual [3] = experiment: IRF Lucia reporter activity, fold change vs agonist alone; cytotoxicity flag (confluency mask): cytotoxic (confluency <70% of control); higher = enhanced IRF activity
How it was run: as §1

[4] = library stock concentration (final ~1000-fold dilution): 10 mM, cytotoxicity flag (confluency mask): not cytotoxic
[5] = agonist: 3'3'-cGAMP (STING) 10 ug/mL
[6] = library stock concentration (final ~1000-fold dilution): 10 mM, cytotoxicity flag (confluency mask): cytotoxic (confluency <70% of control)
[7] = library stock concentration (final ~1000-fold dilution): 10 mM water, cytotoxicity flag (confluency mask): not cytotoxic

`COS(=O)(=O)[O-].COc1cc(N)cn[n+]1-c1ccccc1` was tested, and the “IRF Lucia reporter activity” value (RAW-Dual [1]; [4]) was 1.07.

In the case of `COS(=O)(=O)[O-].COc1cc(N)cn[n+]1-c1ccccc1` (library stock concentration (final ~1000-fold dilution): 10 mM), the “IRF Lucia reporter activity” value (RAW-Dual [2]; [5]) is reported as 1.03 and the “IRF Lucia reporter activity” value (RAW-Dual [2]; agonist: LPS (TLR4) 0.1 ug/mL) is reported as 0.862.

For `CN1CCC(=C2c3ccccc3CCc3sccc32)CC1.O=C(O)CC(O)C(=O)O`, the “IRF Lucia reporter activity” value (RAW-Dual [1]; [6]) was 1.35.

In the case of `CN1CCC(=C2c3ccccc3CCc3sccc32)CC1.O=C(O)CC(O)C(=O)O` (library stock concentration (final ~1000-fold dilution): 10 mM), the “IRF Lucia reporter activity” value (RAW-Dual [3]; [5]) is reported as 0.494 and the “IRF Lucia reporter activity” value (RAW-Dual [3]; agonist: LPS (TLR4) 0.1 ug/mL) is reported as 1.09.

In the case of `O=C1C[C@@H](c2ccc(O[C@@H]3O[C@H](CO)[C@@H](O)[C@H](O)[C@H]3O)cc2)Oc2cc(O)ccc21` (library stock concentration (final ~1000-fold dilution): 10 mM), the “IRF Lucia reporter activity” value (RAW-Dual [2]; [5]) is reported as 0.0254 and the “IRF Lucia reporter activity” value (RAW-Dual [2]; agonist: LPS (TLR4) 0.1 ug/mL) is reported as 0.0873.

With `Nc1ccn(C2CSC(CO)O2)c(=O)n1` (stereo not drawn) (library stock concentration (final ~1000-fold dilution): 10 mM) the “IRF Lucia reporter activity” value (RAW-Dual [2]; [5]) was 1.05 and the “IRF Lucia reporter activity” value (RAW-Dual [2]; agonist: LPS (TLR4) 0.1 ug/mL) was 1.09.

In the case of `Nc1ccn(C2CSC(CO)O2)c(=O)n1` (stereo not drawn), the “IRF Lucia reporter activity” value (RAW-Dual [1]; [4]) is reported as 0.954.

`Cc1c(Cl)cccc1Nc1ccccc1C(=O)O` (library stock concentration (final ~1000-fold dilution): 10 mM) was tested, and the “IRF Lucia reporter activity” value (RAW-Dual [2]; [5]) was 1 and the “IRF Lucia reporter activity” value (RAW-Dual [2]; agonist: LPS (TLR4) 0.1 ug/mL) was 0.84.

`Cc1c(Cl)cccc1Nc1ccccc1C(=O)O` was tested, and the “IRF Lucia reporter activity” value (RAW-Dual [1]; [4]) was 0.957.

In the case of `Cc1cc2ncc(C(=O)NCC(C)(C)NCC(=O)N3CCCC3C#N)cn2n1` (stereo not drawn) (library stock concentration (final ~1000-fold dilution): 10 mM), the “IRF Lucia reporter activity” value (RAW-Dual [2]; [5]) is reported as 1.04 and the “IRF Lucia reporter activity” value (RAW-Dual [2]; agonist: LPS (TLR4) 0.1 ug/mL) is reported as 0.504.

For `Cc1cc2ncc(C(=O)NCC(C)(C)NCC(=O)N3CCCC3C#N)cn2n1` (stereo not drawn), the “IRF Lucia reporter activity” value (RAW-Dual [1]; [4]) was 1.

In the case of `Cc1cc(C)c(CN2CCc3c(Cl)cc(-c4c(C)noc4C)c(Cl)c3C2=O)c(=O)[nH]1` (library stock concentration (final ~1000-fold dilution): 10 mM), the “IRF Lucia reporter activity” value (RAW-Dual [2]; [5]) is reported as 0.847 and the “IRF Lucia reporter activity” value (RAW-Dual [2]; agonist: LPS (TLR4) 0.1 ug/mL) is reported as 0.28.

For `CC(C)(C)CC1NC(C(=O)NC2CCC(O)CC2)C(c2cccc(Cl)c2F)C12C(=O)Nc1cc(Cl)ccc12` (stereo not drawn) (library stock concentration (final ~1000-fold dilution): 10 mM), the “IRF Lucia reporter activity” value (RAW-Dual [3]; [5]) was 0.342 and the “IRF Lucia reporter activity” value (RAW-Dual [3]; agonist: LPS (TLR4) 0.1 ug/mL) was 3.33.

`NC(=O)c1cnc2[nH]ccc2c1NC1C2CC3CC1CC(O)(C3)C2` (stereo not drawn) (library stock concentration (final ~1000-fold dilution): 10 mM) was tested, and the “IRF Lucia reporter activity” value (RAW-Dual [2]; [5]) was 0.00796 and the “IRF Lucia reporter activity” value (RAW-Dual [2]; agonist: LPS (TLR4) 0.1 ug/mL) was 0.0229.

With `O=C1NC(=O)C(c2ccccc2[N+](=O)[O-])=C1Nc1ccc(O)c(Cl)c1` the “IRF Lucia reporter activity” value (RAW-Dual [1]; [4]) was 0.603.

With `O=C1NC(=O)C(c2ccccc2[N+](=O)[O-])=C1Nc1ccc(O)c(Cl)c1` (library stock concentration (final ~1000-fold dilution): 10 mM) the “IRF Lucia reporter activity” value (RAW-Dual [2]; [5]) was 0.579 and the “IRF Lucia reporter activity” value (RAW-Dual [2]; agonist: LPS (TLR4) 0.1 ug/mL) was 0.463.

In the case of `O=C1NC(=O)/C(=C/c2ccc3nccc(-c4ccncc4)c3c2)S1` (library stock concentration (final ~1000-fold dilution): 2 mM), the “IRF Lucia reporter activity” value (RAW-Dual [2]; [5]) is reported as 0.64 and the “IRF Lucia reporter activity” value (RAW-Dual [2]; agonist: LPS (TLR4) 0.1 ug/mL) is reported as 1.1.

`O=C1NC(=O)/C(=C/c2ccc3nccc(-c4ccncc4)c3c2)S1` was tested, and the “IRF Lucia reporter activity” value (RAW-Dual [1]; library stock concentration (final ~1000-fold dilution): 2 mM, cytotoxicity flag (confluency mask): not cytotoxic) was 1.27.

For `CCCc1ncc(C[n+]2ccccc2C)c(N)n1`, the “IRF Lucia reporter activity” value (RAW-Dual [1]; [7]) was 1.17.

`CCCc1ncc(C[n+]2ccccc2C)c(N)n1` (library stock concentration (final ~1000-fold dilution): 10 mM water) was tested, and the “IRF Lucia reporter activity” value (RAW-Dual [2]; [5]) was 0.966 and the “IRF Lucia reporter activity” value (RAW-Dual [2]; agonist: LPS (TLR4) 0.1 ug/mL) was 0.958.

For `COCCOc1nc(-c2ccc(Cl)c(Cl)c2)n(-c2ccc(NC(=O)CCl)cc2)n1`, the “IRF Lucia reporter activity” value (RAW-Dual [1]; [4]) was 0.0249.

With `COCCOc1nc(-c2ccc(Cl)c(Cl)c2)n(-c2ccc(NC(=O)CCl)cc2)n1` (library stock concentration (final ~1000-fold dilution): 10 mM) the “IRF Lucia reporter activity” value (RAW-Dual [2]; [5]) was 0.0137, the “IRF Lucia reporter activity” value (RAW-Dual [2]; agonist: LPS (TLR4) 0.1 ug/mL) was 0.0283 and the “IRF Lucia reporter activity” value (RAW-Dual [3]; [5]) was 0.0112. For the same compound, the “IRF Lucia reporter activity” value (RAW-Dual [3]; agonist: LPS (TLR4) 0.1 ug/mL) was 0.0112.

With `CCC1(O)C(=O)OCc2c1cc1n(c2=O)Cc2cc3c(CN(C)C)c(O)ccc3nc2-1.Cl` (stereo not drawn) (library stock concentration (final ~1000-fold dilution): 10 mM) the “IRF Lucia reporter activity” value (RAW-Dual [3]; [5]) was 2.13 and the “IRF Lucia reporter activity” value (RAW-Dual [3]; agonist: LPS (TLR4) 0.1 ug/mL) was 2.49.

`CCC1(O)C(=O)OCc2c1cc1n(c2=O)Cc2cc3c(CN(C)C)c(O)ccc3nc2-1.Cl` (stereo not drawn) was tested, and the “IRF Lucia reporter activity” value (RAW-Dual [1]; [6]) was 3.1.

For `CC(=O)NC1C(NC(=N)N)C=C(C(=O)O)OC1C(O)C(O)CO` (stereo not drawn), the “IRF Lucia reporter activity” value (RAW-Dual [1]; [7]) was 1.4.

In the case of `CC(=O)NC1C(NC(=N)N)C=C(C(=O)O)OC1C(O)C(O)CO` (stereo not drawn) (library stock concentration (final ~1000-fold dilution): 10 mM water), the “IRF Lucia reporter activity” value (RAW-Dual [2]; [5]) is reported as 1.34 and the “IRF Lucia reporter activity” value (RAW-Dual [2]; agonist: LPS (TLR4) 0.1 ug/mL) is reported as 0.9.

In the case of `C=CCc1ccc(O)c(OC)c1` (library stock concentration (final ~1000-fold dilution): 10 mM), the “IRF Lucia reporter activity” value (RAW-Dual [2]; [5]) is reported as 0.478 and the “IRF Lucia reporter activity” value (RAW-Dual [2]; agonist: LPS (TLR4) 0.1 ug/mL) is reported as 0.888.

With `COC(C(=O)N1Cc2[nH]nc(NC(=O)c3ccc(N4CCN(C)CC4)cc3)c2C1)c1ccccc1` (stereo not drawn) the “IRF Lucia reporter activity” value (RAW-Dual [1]; [4]) was 0.147.

With `COC(C(=O)N1Cc2[nH]nc(NC(=O)c3ccc(N4CCN(C)CC4)cc3)c2C1)c1ccccc1` (stereo not drawn) (library stock concentration (final ~1000-fold dilution): 10 mM) the “IRF Lucia reporter activity” value (RAW-Dual [2]; [5]) was 0.149 and the “IRF Lucia reporter activity” value (RAW-Dual [2]; agonist: LPS (TLR4) 0.1 ug/mL) was 0.162.

With `CCS(=O)(=O)O.COC(=O)c1ccc2c(c1)NC(=O)/C2=C(\Nc1ccc(N(C)C(=O)CN2CCN(C)CC2)cc1)c1ccccc1` (library stock concentration (final ~1000-fold dilution): 10 mM) the “IRF Lucia reporter activity” value (RAW-Dual [2]; [5]) was 0.0841 and the “IRF Lucia reporter activity” value (RAW-Dual [2]; agonist: LPS (TLR4) 0.1 ug/mL) was 0.246.

With `CCS(=O)(=O)O.COC(=O)c1ccc2c(c1)NC(=O)/C2=C(\Nc1ccc(N(C)C(=O)CN2CCN(C)CC2)cc1)c1ccccc1` the “IRF Lucia reporter activity” value (RAW-Dual [1]; [4]) was 0.215.

In the case of `CS(=O)(=O)O.CS(=O)(=O)O.Cc1ccc(C(=O)Nc2ccc(CN3CCN(C)CC3)c(C(F)(F)F)c2)cc1C#Cc1cnc2[nH]ncc2c1`, the “IRF Lucia reporter activity” value (RAW-Dual [1]; [6]) is reported as 0.0201.

In the case of `CS(=O)(=O)O.CS(=O)(=O)O.Cc1ccc(C(=O)Nc2ccc(CN3CCN(C)CC3)c(C(F)(F)F)c2)cc1C#Cc1cnc2[nH]ncc2c1` (library stock concentration (final ~1000-fold dilution): 10 mM), the “IRF Lucia reporter activity” value (RAW-Dual [3]; [5]) is reported as 0.00912 and the “IRF Lucia reporter activity” value (RAW-Dual [3]; agonist: LPS (TLR4) 0.1 ug/mL) is reported as 0.0192.

In the case of `CONC(=O)c1ccccc1Nc1cc(Nc2cc(C)nn2C(C)C)ncc1Cl` (library stock concentration (final ~1000-fold dilution): 10 mM), the “IRF Lucia reporter activity” value (RAW-Dual [2]; [5]) is reported as 0.345 and the “IRF Lucia reporter activity” value (RAW-Dual [2]; agonist: LPS (TLR4) 0.1 ug/mL) is reported as 0.679.

With `CCS(=O)(=O)Nc1ccc(Oc2ccc(F)cc2F)c(-c2cn(C)c(=O)c3[nH]ccc23)c1` (library stock concentration (final ~1000-fold dilution): 10 mM) the “IRF Lucia reporter activity” value (RAW-Dual [3]; [5]) was 0.225 and the “IRF Lucia reporter activity” value (RAW-Dual [3]; agonist: LPS (TLR4) 0.1 ug/mL) was 0.107.
